These results are taken from the supplement of paper PMC10037445.

In all, about 2,900 compounds were measured (“NF-kB SEAP reporter activity, fold change vs agonist alone”: median about 0.99, highest 2% from about 2.6 on). The list shows a part of the results.

For test [1], the system named is RAW-Dual. Briefly: NF-kB SEAP reporter activity, fold change vs agonist alone; higher = enhanced NF-kB activity. Conditions: library stock concentration (final ~1000-fold dilution): 10 mM. An outline of the steps: (§1)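 Reporter activity is given as fold change relative to agonist-alone wells. To measure it, 50 nL of library stock was pin-tooled onto RAW-Dual macrophages (50,000 cells/well, DMEM, 384-well plates), a PRR agonist followed 1 h later, and cells stayed at 37 °C, 5% CO2. Twenty hours on, supernatant was assayed for IRF (QuantiLuc luminescence) and NF-κB (QuantiBlue, 620 nm absorbance), and wells under 70% of agonist-control IncuCyte confluency in both mask sets were marked cytotoxic.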

Test [2] relates to RAW-Dual. Briefly: NF-kB SEAP reporter activity, fold change vs agonist alone; cytotoxicity flag (confluency mask): not cytotoxic; higher = enhanced NF-kB activity. An outline of the steps: as §1
Test [3] concerns RAW-Dual. Description: NF-kB SEAP reporter activity, fold change vs agonist alone; cytotoxicity flag (confluency mask): cytotoxic (confluency <70% of control); higher = enhanced NF-kB activity. An outline of the steps: as §1
Setting [4] is: cytotoxicity flag (confluency mask): not cytotoxic, agonist: Imiquimod (TLR7) […].
Where [5] appears, read: cytotoxicity flag (confluency mask): not cytotoxic, agonist: MPLA (TLR4) […].
The mark [6] stands for this setting: agonist: ODN 1826 (TLR9) 0.5 ug/mL.
The mark [7] stands for this setting: agonist: Pam2CSK4 (TLR2/6) 0.1 ug/mL.
Setting [8] is: agonist: Pam3CSK4 (TLR2/1) 0.1 ug/mL.

Regarding `S=C=Nc1cccc(NC(=S)NCCCCNC(=S)Nc2cccc(N=C=S)c2)c1`, the “NF-kB SEAP reporter activity” value with RAW-Dual [1] (setting [4]) is 1.22; in the test with RAW-Dual [1] (setting [5]) it was 1.1.

Consider `S=C=Nc1cccc(NC(=S)NCCCCNC(=S)Nc2cccc(N=C=S)c2)c1` (library stock concentration (final ~1000-fold dilution): 10 mM), for which the “NF-kB SEAP reporter activity” value came to 1.33 in the test with RAW-Dual [2] (agonist: LPS (TLR4) 0.1 ug/mL), 0.977 in the test with RAW-Dual [2] (setting [6]), 1.02 in the test with RAW-Dual [2] (setting [7]) and 0.977 in the test on RAW-Dual [2] (setting [8]).

Consider `CCOc1cc(N2CCC(O)CC2)ccc1Nc1ncc2c(n1)N(C)c1ccccc1C(=O)N2C` (library stock concentration (final ~1000-fold dilution): 10 mM), for which, in the test with RAW-Dual [2] (agonist: LPS (TLR4) 0.1 ug/mL), the “NF-kB SEAP reporter activity” value stood at 3.72.

Take `O=C1c2ccccc2-c2n[nH]c3cccc1c23` (library stock concentration (final ~1000-fold dilution): 10 mM): the “NF-kB SEAP reporter activity” value in the test on RAW-Dual [2] (agonist: LPS (TLR4) 0.1 ug/mL) was found to be 0.376; with RAW-Dual [2] (setting [6]), 0.316; in the test with RAW-Dual [2] (setting [7]) it was 0.149; with RAW-Dual [2] (setting [8]), 0.192.

With `O=C1c2ccccc2-c2n[nH]c3cccc1c23`, the “NF-kB SEAP reporter activity” value in the test with RAW-Dual [1] (setting [4]) is 0.337; with RAW-Dual [1] (setting [5]) it was 0.837.

On to `CC(C)CC(NC(=O)CNC(=O)c1cc(Cl)ccc1Cl)B(O)O` (configuration not stated), for which the “NF-kB SEAP reporter activity” value with RAW-Dual [1] (setting [4]) was 0.894; in the test with RAW-Dual [1] (setting [5]), 0.931.

As for `CC(C)CC(NC(=O)CNC(=O)c1cc(Cl)ccc1Cl)B(O)O` (configuration not stated) (library stock concentration (final ~1000-fold dilution): 10 mM), the “NF-kB SEAP reporter activity” value with RAW-Dual [2] (agonist: LPS (TLR4) 0.1 ug/mL) amounted to 0.683; in the test with RAW-Dual [2] (setting [6]), 0.942; with RAW-Dual [2] (setting [7]), 1.07; in the test with RAW-Dual [2] (setting [8]) it was 0.768.

On to `CNC(=O)c1ccc(N2C(=S)N(c3cnc(C#N)c(C(F)(F)F)c3)C(=O)C23CCC3)cc1F` (library stock concentration (final ~1000-fold dilution): 10 mM), for which the “NF-kB SEAP reporter activity” value with RAW-Dual [2] (agonist: LPS (TLR4) 0.1 ug/mL) amounted to 0.895; with RAW-Dual [2] (setting [6]), 1; in the test with RAW-Dual [2] (setting [7]), 0.884; in the test on RAW-Dual [2] (setting [8]), 1.13.

As for `CNC(=O)c1ccc(N2C(=S)N(c3cnc(C#N)c(C(F)(F)F)c3)C(=O)C23CCC3)cc1F`, the figures for the “NF-kB SEAP reporter activity” value in the test with RAW-Dual [1] (setting [4]) and with RAW-Dual [1] (setting [5]) were 0.992 and 0.953, respectively.

For the compound `Cl.N=c1ccn2c(n1)OC1C(O)C(CO)OC12` (configuration not stated), the “NF-kB SEAP reporter activity” value in the test with RAW-Dual [1] (setting [4]) was found to be 1.8; in the test on RAW-Dual [1] (setting [5]) it was 1.42.

For the compound `Cl.N=c1ccn2c(n1)OC1C(O)C(CO)OC12` (configuration not stated) (library stock concentration (final ~1000-fold dilution): 10 mM), the “NF-kB SEAP reporter activity” value in the test on RAW-Dual [2] (agonist: LPS (TLR4) 0.1 ug/mL) is 1.33; in the test on RAW-Dual [2] (setting [6]), 1.89; with RAW-Dual [2] (setting [7]), 1.4; with RAW-Dual [2] (setting [8]), 1.83.

For `C[C@@H]1O[C@@H](O[C@@H]2[C@@H](O)[C@H](OCCc3ccc(O)c(O)c3)O[C@H](CO[C@@H]3O[C@H](CO)[C@@H](O)[C@H](O)[C@H]3O)[C@H]2OC(=O)/C=C/c2ccc(O)c(O)c2)[C@H](O)[C@H](O)[C@H]1O` (library stock concentration (final ~1000-fold dilution): 10 mM), the “NF-kB SEAP reporter activity” value in the test with RAW-Dual [2] (agonist: LPS (TLR4) 0.1 ug/mL) came out at 1.05; in the test with RAW-Dual [2] (setting [6]), 1.03; in the test on RAW-Dual [2] (setting [7]) it was 1.04; in the test with RAW-Dual [2] (setting [8]), 0.936.

Regarding `C[C@@H]1O[C@@H](O[C@@H]2[C@@H](O)[C@H](OCCc3ccc(O)c(O)c3)O[C@H](CO[C@@H]3O[C@H](CO)[C@@H](O)[C@H](O)[C@H]3O)[C@H]2OC(=O)/C=C/c2ccc(O)c(O)c2)[C@H](O)[C@H](O)[C@H]1O`, the “NF-kB SEAP reporter activity” value with RAW-Dual [1] (setting [4]) came to 0.893; in the test on RAW-Dual [1] (setting [5]) it was 0.966.

Regarding `CN1CCN(c2ccc(C(=O)Nc3n[nH]c4ccc(Cc5cc(F)cc(F)c5)cc34)c(NC3CCOCC3)c2)CC1`, the “NF-kB SEAP reporter activity” value amounted to 0.608 with RAW-Dual [1] (cytotoxicity flag (confluency mask): cytotoxic (confluency <70% of control), agonist: Imiquimod (TLR7) […]) and 0.545 in the test with RAW-Dual [1] (cytotoxicity flag (confluency mask): cytotoxic (confluency <70% of control), agonist: MPLA (TLR4) […]).

As for `CN1CCN(c2ccc(C(=O)Nc3n[nH]c4ccc(Cc5cc(F)cc(F)c5)cc34)c(NC3CCOCC3)c2)CC1` (library stock concentration (final ~1000-fold dilution): 10 mM), the “NF-kB SEAP reporter activity” value with RAW-Dual [3] (agonist: LPS (TLR4) 0.1 ug/mL) was found to be 0.334; in the test on RAW-Dual [3] (setting [6]) it was 0.21; with RAW-Dual [3] (setting [7]) it was 0.225; in the test on RAW-Dual [3] (setting [8]) it was 0.141.

`Cc1nc(Nc2ccc(F)cc2)nc(N2CCc3ccccc3C2C)c1C.Cl` (configuration not stated): in the test on RAW-Dual [1] (setting [5]), the “NF-kB SEAP reporter activity” value was found to be 1.23.

Regarding `Cc1nc(Nc2ccc(F)cc2)nc(N2CCc3ccccc3C2C)c1C.Cl` (configuration not stated) (library stock concentration (final ~1000-fold dilution): 10 mM), the “NF-kB SEAP reporter activity” value in the test with RAW-Dual [2] (agonist: LPS (TLR4) 0.1 ug/mL) is 1.09; in the test with RAW-Dual [2] (setting [6]), 1.17; in the test on RAW-Dual [2] (setting [7]), 0.533; in the test on RAW-Dual [2] (setting [8]), 0.376.

`CN1C(=N)NC(C)(c2cc(NC(=O)c3ccc(F)cn3)ccc2F)CS1(=O)=O.O=C(O)C(F)(F)F` (configuration not stated) (library stock concentration (final ~1000-fold dilution): 10 mM): the “NF-kB SEAP reporter activity” value in the test with RAW-Dual [2] (agonist: LPS (TLR4) 0.1 ug/mL) came out at 0.826; with RAW-Dual [2] (setting [6]), 0.731; in the test with RAW-Dual [2] (setting [7]), 0.823; with RAW-Dual [2] (setting [8]), 0.856.

On to `CN1C(=N)NC(C)(c2cc(NC(=O)c3ccc(F)cn3)ccc2F)CS1(=O)=O.O=C(O)C(F)(F)F` (configuration not stated), for which the “NF-kB SEAP reporter activity” value in the test on RAW-Dual [1] (setting [4]) came to 0.873; with RAW-Dual [1] (setting [5]), 0.781.

On to `COc1ccc2[nH]c(S(=O)Cc3ncc(C)c(OC)c3C)nc2n1` (configuration not stated) (library stock concentration (final ~1000-fold dilution): 10 mM), for which the “NF-kB SEAP reporter activity” value was found to be 1.09 with RAW-Dual [2] (agonist: LPS (TLR4) 0.1 ug/mL), 0.927 in the test on RAW-Dual [2] (setting [6]), 1.04 in the test on RAW-Dual [2] (setting [7]) and 1.34 in the test with RAW-Dual [2] (setting [8]).

`COc1ccc2[nH]c(S(=O)Cc3ncc(C)c(OC)c3C)nc2n1` (configuration not stated): the “NF-kB SEAP reporter activity” value amounted to 0.965 in the test on RAW-Dual [1] (setting [4]) and 1.07 in the test with RAW-Dual [1] (setting [5]).

`CS(=O)(=O)c1ccc(Oc2cc(F)cc(C#N)c2)c2c1C(O)C(F)(F)C2` (configuration not stated) (library stock concentration (final ~1000-fold dilution): 10 mM): the “NF-kB SEAP reporter activity” value in the test on RAW-Dual [2] (agonist: LPS (TLR4) 0.1 ug/mL) amounted to 1.07; with RAW-Dual [2] (setting [6]), 1.35; with RAW-Dual [2] (setting [7]), 1.01; in the test with RAW-Dual [2] (setting [8]) it was 1.2.

Regarding `CS(=O)(=O)c1ccc(Oc2cc(F)cc(C#N)c2)c2c1C(O)C(F)(F)C2` (configuration not stated), the “NF-kB SEAP reporter activity” value in the test on RAW-Dual [1] (setting [4]) came out at 1.03; in the test on RAW-Dual [1] (setting [5]), 1.16.

As to `O=C(Nc1cccc(Cl)c1)Nc1ncc(CCNc2ncnc3ccsc23)s1` (library stock concentration (final ~1000-fold dilution): 10 mM), the “NF-kB SEAP reporter activity” value in the test on RAW-Dual [2] (agonist: LPS (TLR4) 0.1 ug/mL) is 0.769; in the test on RAW-Dual [2] (setting [6]) it was 0.415; with RAW-Dual [2] (setting [7]), 0.172; with RAW-Dual [2] (setting [8]), 0.268.

Take `O=C(Nc1cccc(Cl)c1)Nc1ncc(CCNc2ncnc3ccsc23)s1`: the entries for the “NF-kB SEAP reporter activity” value in the test on RAW-Dual [1] (setting [4]) and in the test with RAW-Dual [1] (setting [5]) were 0.259 and 0.504, respectively.
